From patent US20230192801A1 (Novo Nordisk, published 2023)

Molecular target: T1, solubilised human IR-A (IR-A holoreceptor semipurified by wheat germ agglutinin chromatography from BHK cells) (human)
T1 construct: mature; Detergent-solubilised holoreceptor, captured through anti-IR mouse antibody 83-7 on SPA beads; The A isoform lacks exon 11; also called hIRA; human insulin receptor (IR)
Assay: competition SPA, displacement of [125I-A14Y]-human insulin from solubilised human IR-A; affinity relative to human insulin standard
Description: Plates are incubated with gentle shaking for 22-24 h at 22° C., centrifuged at 2000 rpm for 2 minutes and counted on a TopCount NXT (Perkin-Elmer Life Sciences).
Data from the SPA are analysed according to the four-parameter logistic model (Volund A (1978) Biometrics 34 357-365), and the binding affinities of the analogues calculated relative to that of the human insulin standard measured within the same plate.

Row | hIRA (% rel to HI), relative binding affinity | Binder
1 | 83.2 % rel to HI | A9E, B3E, B26E, desB30 human insulin (ligand, Two-chain insulin analogue made in yeast (General Procedure B)) chain 1: not shown chain 2: FVEQHLCGSHLVEALYLVCGERGFFETPK
2 | 59.5 % rel to HI | A9E, B3E, B27E, B28E, desB30 human insulin (ligand, Two-chain insulin analogue made in yeast (General Procedure B)) chain 1: not shown chain 2: FVEQHLCGSHLVEALYLVCGERGFFYEEK
3 | 75.5 % rel to HI | A9D, B3E, B26E, desB30 (ligand, Two-chain insulin analogue made in yeast (General Procedure B)) chain 1: not shown chain 2: FVEQHLCGSHLVEALYLVCGERGFFETPK
